# Source: the supplement of paper PMC12217912
# Some of the results follow. Sequences were assembled here from the parent chain. Inactive controls read about 0.05.
# B1: TEV protease; numbered along this chain (parent)
# chain: MGESLFKGPRDYNPISSSICHLTNESDGHTTSLYGIGFGPFIITNKHLFRRNNGTLVVQSLHGVFKVKDTTTLQQHLVDGRDMIIIRMPKDFPPFPQKLKFREPQREERICLVTTNFQTKSMSSMVSDTSCTFPSGDGIFWKHWIQTKDGQCGSPLVSTRDGFIVGIHSASNFTNTNNYFTSVPKNFMELLTNQEAQQWVSGWRLNADSVLWGGHKVFMVKPEEPFQPVKEATQL
# Variants of: B1
# Assay: raw area under fraction-flipped curve 0-4 h after induction (AUC4h, not background-subtracted), DNA-recorder readout of cleavage of the substrate (dimensionless); higher = more cleavage of the substrate by the protease variant
# Settings: temperature: 34 °C; time window: 0-4 h after rhamnose induction
# Method: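 In vivo DNA recorder in E. coli TOP10(DE3) ΔrhaA at 34 °C. Each TEVp single-site mutant (parent TEVp 0) is paired with a single-site variant of the 7-mer TEVs (canonical ENLYFQ|S). The substrate sits between flexible linkers in a Bxb1-sfGFP-TEVs-SsrA fusion, so cleavage stabilises Bxb1 and speeds flipping of a recombination array, read by NGS. The value is the raw area under the fraction-flipped curve over 0-4 h after rhamnose induction (AUC4h), with ≥20 reads per time point. It is not background-subtracted; inactive controls average about 0.047.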
# 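Also: Bxb1 expression induced with 0.2% (w/v) L-rhamnose at OD600 near 0.5, cultures sampled hourly, flipped fraction per protease–substrate barcode pair counted by paired-end Illumina sequencing.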
Variant,area with substrate ENAYFQS,area with substrate ENDYFQS,area with substrate ENEYFQS,area with substrate ENGYFQS,area with substrate ENHYFQS,area with substrate ENMYFQS,area with substrate ENQYFQS,area with substrate ENRYFQS,area with substrate ENSYFQS,area with substrate ENTYFQS,area with substrate ENVYFQS,area with substrate ENWYFQS,area with substrate ENYYFQS,area with substrate ENCYFQS,area with substrate ENFYFQS,area with substrate ENIYFQS,area with substrate ENKYFQS,area with substrate ENPYFQS,area with substrate ENNYFQS
T114F,0.0773,0.0481,0.0596,0.0573,0.0544,0.0873,0.0607,0.0704,0.0625,0.0609,0.0859,0.0634,0.051,,,,,,
N116D,0.0552,0.0605,0.0445,0.0619,0.0465,0.0805,0.047,0.0478,0.0705,,0.0787,,0.0603,0.0652,0.053,0.113,0.0657,0.0682,
N116Q,0.0419,,0.0617,0.0638,0.0633,,,0.0304,,0.056,0.0836,0.0534,0.063,0.07,0.0534,,0.0691,,0.0593
F117H,0.0647,0.0641,0.0624,0.0537,,0.0783,0.0658,0.0524,0.0727,0.0885,0.0824,,,0.0642,0.088,,0.0749,0.0534,0.0633
M122E,0.0418,0.0501,0.0603,0.0708,0.0738,,0.0801,0.0511,0.104,,0.0894,0.0497,0.0688,0.0481,0.0722,,,0.0456,0.0644
M122Q,0.0541,0.0412,0.0748,,0.0473,,0.0753,0.0528,0.0683,0.0482,0.0856,,,0.0613,0.0562,0.0956,0.0647,0.0578,0.0564
S123A,0.066,,0.0654,0.0446,,0.0773,0.0548,,0.0628,0.0629,,,,,0.057,,0.0546,,0.0635
S123K,0.0526,0.0625,0.0624,0.0523,0.0547,0.0684,0.0594,0.0762,0.0652,0.0563,0.109,0.06,0.0723,0.0697,,,0.0566,0.0798,0.064
S123M,0.0643,0.0525,0.0626,0.0648,0.0577,,,0.0614,0.0703,0.0509,0.0673,0.0241,,,0.0568,,,0.0488,0.0413
S124W,0.0646,0.0319,0.0759,0.0634,0.0359,,,,0.0718,,0.0796,,,0.057,0.0589,0.117,0.0743,0.0583,0.0615
M125N,0.0641,0.0671,0.0666,0.074,0.0661,0.0787,0.0571,0.0585,0.0624,0.0611,0.0886,,0.0545,0.0466,0.0662,,0.0626,0.0578,0.0597
M125T,0.0587,0.0641,0.0573,0.0566,0.0651,0.0689,0.0616,0.0539,0.0688,0.0603,0.0714,0.0656,,0.0652,0.0636,0.102,0.0634,0.0581,0.068
M125V,0.0681,0.0647,0.0648,0.0687,0.0575,,0.0634,0.0704,,,0.0845,,0.0803,0.0697,,,,0.0626,0.0605
V126M,0.0647,0.0556,0.0631,0.0763,0.0559,0.0781,0.0422,,0.0529,0.0613,0.0635,0.06,,0.0644,0.0554,,,0.0619,0.0602
V126N,0.0618,0.0685,0.0701,0.0604,0.0676,,0.065,0.0401,0.0646,0.0508,0.0873,0.0725,0.0651,0.0624,,0.117,0.0563,0.0722,0.0454
V126W,0.0591,0.0433,0.0607,0.0514,0.0665,0.0815,0.0606,0.0577,0.065,0.0657,0.0792,0.0574,,0.0726,0.0708,,0.0589,0.0367,0.0594
S127D,0.0552,,0.0567,0.0662,,0.0658,,,0.0621,,0.0702,,,0.0654,,0.113,0.0546,0.0549,0.0691
T129I,0.0674,0.0432,,0.057,,,0.0547,0.0491,0.0674,0.067,,,,0.0655,0.0474,,,,
T129W,0.0667,0.0589,0.0547,0.0642,0.0641,,0.056,0.0531,0.0685,0.0794,0.0715,0.0606,,0.0609,0.057,0.113,0.0534,0.0574,
T132V,0.0726,0.0633,0.0753,0.059,0.0606,0.0713,0.0596,,0.0553,0.0669,0.0711,,0.0613,0.0632,0.0696,0.109,0.059,0.0553,0.0567
F133E,0.0715,0.0659,0.0541,0.0683,0.0544,0.0939,0.0645,,0.066,0.0738,0.0937,,0.0718,,0.0754,0.0982,,,0.0612
S135A,0.0263,0.0631,0.062,0.0525,0.0562,0.0578,0.0529,0.0621,0.0578,0.0745,0.0669,0.0543,,0.0662,,0.0678,0.064,0.0532,0.0556
D137N,0.0696,0.0637,0.0574,0.0561,,0.0907,0.0603,0.0585,0.0622,0.0662,0.071,0.0375,0.0786,0.0744,0.0731,0.113,0.07,0.0499,0.0706
D137R,0.0666,0.0703,0.0685,,0.0511,,0.0434,,0.065,,0.0639,0.0859,0.0517,0.0442,0.048,0.0797,,,0.0722
